# Assay results published in the supplement of paper PMC4166925.
# ± gives the standard deviation of the averaged measurements. Over roughly 33,000 sequences, “E-score (dimensionless, -0.5 to 0.5)” has its median near -0.049; the highest 2% begin near 0.37. This is one part of the list.
# Test system: T1, PmTbr T-box DNA-binding domain (GST fusion)
# T1 sequence: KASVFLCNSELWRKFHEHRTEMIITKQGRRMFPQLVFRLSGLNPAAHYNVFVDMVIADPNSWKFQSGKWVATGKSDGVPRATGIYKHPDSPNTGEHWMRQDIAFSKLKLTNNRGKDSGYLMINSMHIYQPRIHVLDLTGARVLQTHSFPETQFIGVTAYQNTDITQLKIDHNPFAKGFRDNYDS
# Assay: PBM E-score of 8-mer (E-score (dimensionless, -0.5 to 0.5)); Tbr is Tbrain of the sea star Patiria miniata (Pm) or the sea urchin Strongylocentrotus purpuratus (Sp); higher = stronger binding preference; most listed sequences are background and not binding sites
# Conditions: the construct has about 5 more residues each side
# Procedure, shortened: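 GST-fused Tbr T-box DNA-binding domains (the whole T-box plus about five flanking residues) were expressed in BL21 E. coli at 20 °C and purified by glutathione affinity chromatography. Universal Agilent oligonucleotide arrays were made double-stranded by primer extension, incubated with 200 nM protein in PBS (pH 7.5), then scanned and quantified. Every ungapped 8-mer was scored from probe intensities. The Universal PBM Analysis Suite gave each word an enrichment E-score, averaged over duplicate arrays.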
row,Sequence,PBM E-score of 8-mer
1,CGTGCGTA,-0.00978 ± 0.00028
2,GCCAACCA,0.123 ± 0.016
3,AGCCGGAA,-0.196 ± 0.015
4,AAACATTC,-0.0525 ± 0.037
5,GGCGGATA,-0.365 ± 0.03
6,AAGGTTAA,-0.185 ± 0.091
7,CGACGACC,0.0145 ± 0.08
8,CGCCTTCC,-0.0214 ± 0.05
9,ACGTAGCA,0.0988 ± 0.0023
10,GACAACTC,0.237 ± 0.024
11,CCATGGTC,-0.0411 ± 0.036
12,ACCCCCTC,-0.00817 ± 0.062
13,ATGCAGAG,-0.123 ± 0.047
14,ATGGCGAA,0.0912 ± 0.034
15,GGCTGAGA,0.052 ± 0.022
16,CGTCCTCA,-0.129 ± 0.043
17,AAAAACAA,-0.0813 ± 0.11
18,GTACCGAA,-0.191 ± 0.013
19,ACCGTACC,-0.141 ± 0.059
20,CGCACCAA,0.251 ± 0.04
21,ACGAATTC,-0.0796 ± 0.024
22,GGGATCGA,-0.211 ± 0.079
23,CAGCCCCC,-0.176 ± 0.015
24,CTGGGAGA,-0.0542 ± 0.0058
25,AGCTGGGG,-0.131 ± 0.035

row,Sequence,PBM E-score of 8-mer
1,CCCCCGGC,-0.16 ± 0.0058
2,GATCCCGA,-0.207 ± 0.0067
3,ATATGGAG,-0.218 ± 0.035
4,GTAAGGCA,-0.306 ± 0.082
5,AGGTCCCG,-0.213 ± 0.0028
6,GTCCATCA,-0.167 ± 0.012
7,CACGGCTG,0.0955 ± 0.088
8,AGTCAATG,-0.195 ± 0.041
9,GATCGGGA,-0.223 ± 0.042
10,CTAAATAG,-0.0726 ± 0.01
11,CCTGTGTC,0.0544 ± 0.035
12,AGGGGAAG,-0.115 ± 0.073
13,CGTAGTAC,-0.245 ± 0.039
14,GCCTCCGA,-0.07549 ± 0.00067
15,ATCAGCGC,0.158 ± 0.022
16,AGACACTG,-0.0402 ± 0.079
17,CCGCTCAA,-0.213 ± 0.012
18,CTGCATCA,-0.1 ± 0.077
19,CCTACTTC,-0.254 ± 0.038
20,AAAGGGGT,0.0881 ± 0.091
21,ATATACAC,0.0813 ± 0.032
22,AACAACGG,-0.0812 ± 0.055
23,CCGGTCAA,-0.079 ± 0.068
24,CGGCACCC,0.221 ± 0.043
25,CATCGCGA,0.15 ± 0.043

row,Sequence,PBM E-score of 8-mer
1,CAAGACTC,0.012 ± 0.018
2,AGCTCAAA,-0.0986 ± 0.042
3,CGGTCAAA,-0.18 ± 0.0046
4,GGAGGAAC,-0.022 ± 0.035
5,ATAAGGCG,0.186 ± 0.023
6,ATCTCAAG,-0.208 ± 0.0073
7,AGGCTTGA,-0.0666 ± 0.068
8,CGACGTGA,0.229 ± 0.014
9,ATAGTTGC,0.0442 ± 0.026
10,CAGGTGGC,0.364 ± 0.018
11,CGTAGTCA,0.0468 ± 0.00047
12,TACAGAAA,-0.131 ± 0.037
13,CGACCTCC,-0.154 ± 0.0068
14,ACTTGAAT,-0.1055 ± 0.00061
15,ACCAGCCG,0.149 ± 0.013
16,GAGGATAC,0.0967 ± 0.07
17,CCAGTTCA,-0.052 ± 0.044
18,AATCATTA,-0.104 ± 0.081
19,CCTCAGTA,-0.04691 ± 0.00039
20,AGCATGGG,-0.218 ± 0.072
21,GAATGAGA,-0.119 ± 0.047
22,AATGTGCA,0.0806 ± 0.0083
23,AAGCAAGC,-0.157 ± 0.037
24,GTAAATAC,-0.29 ± 0.0076
25,AGTGAGCG,0.0789 ± 0.034

row,Sequence,PBM E-score of 8-mer
1,GGAGTGCA,-0.0921 ± 0.012
2,TTGCGAAA,0.349 ± 0.034
3,AAGTTTCC,-0.0893 ± 0.047
4,GAAAAGTA,-0.0794 ± 0.046
5,AGAGCTAG,-0.242 ± 0.036
6,CTAGAGGA,-0.214 ± 0.034
7,GTAGTCAC,0.137 ± 0.0086
8,AAGGGGTG,0.292 ± 0.038
9,ACTTCGAT,0.102 ± 0.024
10,CGCTACTC,0.1564 ± 0.0012
11,AGTGTAGC,0.137 ± 0.0081
12,GCCTGCAA,-0.102 ± 0.041
13,GATCTGCC,-0.041 ± 0.024
14,AAAGAATC,0.018 ± 0.044
15,ACAGCAAT,0.0583 ± 0.025
16,GAGCAGCA,-0.1863 ± 0.0012
17,CCGTTCCC,0.0661 ± 0.053
18,ATACGATC,-0.104 ± 0.058
19,ACAAGTGG,0.375 ± 0.017
20,CGATGAAC,-0.0227 ± 0.068
21,AGGCGGTC,0.0247 ± 0.058
22,CCTCGCGA,0.281 ± 0.00058
23,ATCCGTAC,-0.132 ± 0.052
24,ACATGCAA,0.00215 ± 0.018
25,CTTAAACC,-0.167 ± 0.019

row,Sequence,PBM E-score of 8-mer
1,GACAATCA,0.102 ± 0.02
2,CCTGTTTA,-0.126 ± 0.0022
3,CACGTGGC,0.244 ± 0.011
4,CGAGTAAG,-0.0352 ± 0.022
5,GGACCACC,-0.135 ± 0.064
6,GGCCCACA,-0.0771 ± 0.055
7,AGCTAGTA,-0.207 ± 0.037
8,CTTCAAAC,0.0284 ± 0.034
9,GCGATGAA,0.251 ± 0.023
10,AGCTAGCT,0.0796 ± 0.0065
11,AGTATTTA,-0.144 ± 0.006
12,CTGAAACA,-0.183 ± 0.022
13,ATGGTAGA,-0.0338 ± 0.1
14,AACACGGT,0.133 ± 0.049
15,GAGGAGGC,0.0601 ± 0.015
16,CTTTCTTC,-0.0736 ± 0.1
17,CGATGTAG,-0.212 ± 0.04
18,AACAAATT,0.0401 ± 0.094
19,GGAACATA,-0.215 ± 0.011
20,CTAACGGA,0.0817 ± 0.064
21,AGAAATAC,-0.0878 ± 0.0053
22,AGGATACG,0.0582 ± 0.014
23,CGAATGAG,-0.0849 ± 0.022
24,ATTTTACG,-0.126 ± 0.049
25,CCTCTAAC,-0.0816 ± 0.025

row,Sequence,PBM E-score of 8-mer
1,GGCTAAAA,-0.22 ± 0.064
2,ACTGACAT,0.0983 ± 0.064
3,ATAGATCC,-0.25 ± 0.031
4,AGACGAGA,0.0969 ± 0.0083
5,TAATAACA,0.119 ± 0.14
6,GCCATGTA,-0.101 ± 0.045
7,ACGATCCA,-0.237 ± 0.072
8,CAGTAATC,0.12 ± 0.012
9,AGACAAAG,-0.0593 ± 0.018
10,AACTTTAT,0.00789 ± 0.075
11,CCACTCCG,-0.01631 ± 0.00014
12,CTTAGTCA,-0.148 ± 0.017
13,AAGCTACG,-0.0856 ± 0.073
14,GTATTGGA,-0.248 ± 0.035
15,AAGGTTGG,-0.217 ± 0.13
16,GATTGAGA,-0.185 ± 0.025
17,GCATCGCA,0.0234 ± 0.0033
18,AATTAGAT,-0.172 ± 0.0059
19,GCCGAAAC,-0.255 ± 0.019
20,AACGATAC,-0.0172 ± 0.013
21,GATAGTCC,-0.127 ± 0.061
22,GCAATGCC,-0.133 ± 0.016
23,CCACGTAA,-0.149 ± 0.068
24,ATATTCAA,-0.197 ± 0.032
25,GGACAAGA,-0.239 ± 0.035

row,Sequence,PBM E-score of 8-mer
1,ACCGGATC,-0.144 ± 0.011
2,GTCCCCCA,-0.019 ± 0.041
3,CCTAAGAA,0.016 ± 0.05
4,TAACCCTA,-0.134 ± 0.032
5,GCGTAGCA,0.159 ± 0.013
6,ACCGCCGT,-0.217 ± 0.0029
7,TAGTTTAA,-0.117 ± 0.0079
8,AACTCATT,-0.0513 ± 0.024
9,CATGCATG,-0.173 ± 0.082
10,AGTGGCCA,-0.022 ± 0.035
11,AGTACCGG,-0.347 ± 0.02
12,AGAATACC,-0.15 ± 0.046
13,CTAAGTAG,-0.156 ± 0.051
14,CGAGACTC,0.0667 ± 0.093
15,GAGGTCGC,0.228 ± 0.035
16,GACCGGGC,-0.0921 ± 0.02
17,AATTACCA,0.0867 ± 0.056
18,GAATCGAC,0.0766 ± 0.0047
19,CTAACCTA,0.0525 ± 0.04
20,GAGACTGA,-0.017 ± 0.038
21,GCCCATAA,-0.162 ± 0.027
22,CGCTTACA,0.0751 ± 0.065
